# Experimental data from US7943340B2, “Fungal dipeptidyl peptidase IV (DPPIV) enzyme for reagent use” (priority 2003, dated 2011).
# Test system: desMet-G-CSF
# Assay: Digestion of desMet-G-CSF with DPPIV
# Settings: overnight 37° C., E/S 1/20 (w:w)
# Experimental: The freeze-dried material was suspended at a 1 mg/ml concentration in 50 mM Tris-HCl, pH 7.5 containing 0.1% Sarcosyl and incubated overnight at 37° C. with DPPIV at an E/S ratio of 1/20 (w:w). The protein was isolated by RP-HPLC as before and characterized by ESI-MS (FIGS. 13A and B).
substance,measurement,value
"ruDPPIV: T. rubrum dipeptidylpeptidase IV, 775 amino acid residues (SEQ ID NO: 35)",cleavage of N-terminal dipeptide from desMet-G-CSF,cleavage of the N-terminal dipeptide Thr-Pro
